Experiment [1] deals with T1, HisMBP-CYCA1;2/TAM (Arabidopsis thaliana) (UniProt Q9FVX0).
T1 sequence: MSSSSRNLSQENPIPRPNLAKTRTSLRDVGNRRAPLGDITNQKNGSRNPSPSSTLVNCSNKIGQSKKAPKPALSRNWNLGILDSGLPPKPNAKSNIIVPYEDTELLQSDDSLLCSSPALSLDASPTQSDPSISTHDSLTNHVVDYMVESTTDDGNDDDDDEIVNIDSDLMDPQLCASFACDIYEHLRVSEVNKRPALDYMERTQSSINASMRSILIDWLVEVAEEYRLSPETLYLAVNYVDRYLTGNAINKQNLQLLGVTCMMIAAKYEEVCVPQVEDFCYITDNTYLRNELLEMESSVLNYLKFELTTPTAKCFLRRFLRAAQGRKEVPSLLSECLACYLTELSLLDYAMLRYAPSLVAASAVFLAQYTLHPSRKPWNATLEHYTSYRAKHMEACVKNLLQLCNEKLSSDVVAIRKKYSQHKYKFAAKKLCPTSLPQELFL
Briefly: pull-down; HisMBP-CYCA1;2/TAM co-expressed with StrepIII-CDK and GST-Cak1 in E. coli, purified on a Ni-NTA column; co-purified StrepIII-CDKs detected with strep-tactin HRP.

By UniProt entry, the sequences of proteins in these tests, tags left out.
UniProt P24100: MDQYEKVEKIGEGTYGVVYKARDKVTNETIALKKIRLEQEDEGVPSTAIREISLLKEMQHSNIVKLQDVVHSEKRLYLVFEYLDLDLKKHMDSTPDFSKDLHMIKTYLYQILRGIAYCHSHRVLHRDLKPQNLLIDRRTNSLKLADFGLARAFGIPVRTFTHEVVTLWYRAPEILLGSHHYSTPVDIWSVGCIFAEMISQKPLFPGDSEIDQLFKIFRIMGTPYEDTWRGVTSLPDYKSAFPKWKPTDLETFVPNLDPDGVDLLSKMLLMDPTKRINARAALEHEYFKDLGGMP
UniProt P25859: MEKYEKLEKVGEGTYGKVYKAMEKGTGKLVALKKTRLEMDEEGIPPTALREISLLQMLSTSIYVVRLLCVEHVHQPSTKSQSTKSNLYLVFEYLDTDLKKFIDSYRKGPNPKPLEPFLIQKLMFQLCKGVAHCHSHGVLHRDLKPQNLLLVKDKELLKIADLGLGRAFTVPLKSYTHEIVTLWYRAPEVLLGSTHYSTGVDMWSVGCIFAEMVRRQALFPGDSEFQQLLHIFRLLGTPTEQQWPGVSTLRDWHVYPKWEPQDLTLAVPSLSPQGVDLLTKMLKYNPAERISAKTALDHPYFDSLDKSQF

Experiment [2] concerns the target T2, OSD1 (OMISSION OF SECOND DIVISION), yeast two-hybrid bait (Arabidopsis thaliana) (UniProt Q9M2R1).
T2 sequence: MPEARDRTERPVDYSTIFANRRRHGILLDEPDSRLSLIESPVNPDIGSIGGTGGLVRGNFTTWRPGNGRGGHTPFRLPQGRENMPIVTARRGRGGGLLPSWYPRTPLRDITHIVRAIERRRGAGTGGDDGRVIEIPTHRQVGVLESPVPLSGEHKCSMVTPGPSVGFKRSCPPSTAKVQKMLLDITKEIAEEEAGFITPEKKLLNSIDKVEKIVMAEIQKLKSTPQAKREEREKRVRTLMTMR
In words: two-hybrid; OSD1 as bait (pDEST32) with different APC/C subunits as prey (pDEST22), by mating.

Experiment [3] concerns the target T3, CCS52A1, TAP-tagged bait (Arabidopsis thaliana) (UniProt Q8L3Z8).
T3 sequence: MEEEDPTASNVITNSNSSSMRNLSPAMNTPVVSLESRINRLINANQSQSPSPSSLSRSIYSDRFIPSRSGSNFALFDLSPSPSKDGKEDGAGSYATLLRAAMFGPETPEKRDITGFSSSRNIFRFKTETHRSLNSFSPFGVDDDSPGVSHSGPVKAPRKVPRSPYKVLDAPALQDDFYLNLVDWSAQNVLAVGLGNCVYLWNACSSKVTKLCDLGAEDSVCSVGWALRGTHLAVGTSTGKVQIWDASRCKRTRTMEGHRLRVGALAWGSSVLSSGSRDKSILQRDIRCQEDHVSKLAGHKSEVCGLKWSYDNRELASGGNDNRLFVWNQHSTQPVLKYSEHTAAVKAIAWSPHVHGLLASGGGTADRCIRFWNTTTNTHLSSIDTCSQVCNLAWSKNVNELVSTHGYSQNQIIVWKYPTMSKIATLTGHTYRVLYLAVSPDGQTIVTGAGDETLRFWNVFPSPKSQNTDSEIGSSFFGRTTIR
Briefly: tandem affinity purification with western blot; TAP-tagged CDC20s and CCS52s as baits; tandem purified elutions separated by SDS-PAGE and probed with anti-OSD1 antibody; anti-CBP as loading control.

Experiment [4] has as its target T4, CCS52A2, TAP-tagged bait (Arabidopsis thaliana) (UniProt Q8VZS9).
T4 sequence: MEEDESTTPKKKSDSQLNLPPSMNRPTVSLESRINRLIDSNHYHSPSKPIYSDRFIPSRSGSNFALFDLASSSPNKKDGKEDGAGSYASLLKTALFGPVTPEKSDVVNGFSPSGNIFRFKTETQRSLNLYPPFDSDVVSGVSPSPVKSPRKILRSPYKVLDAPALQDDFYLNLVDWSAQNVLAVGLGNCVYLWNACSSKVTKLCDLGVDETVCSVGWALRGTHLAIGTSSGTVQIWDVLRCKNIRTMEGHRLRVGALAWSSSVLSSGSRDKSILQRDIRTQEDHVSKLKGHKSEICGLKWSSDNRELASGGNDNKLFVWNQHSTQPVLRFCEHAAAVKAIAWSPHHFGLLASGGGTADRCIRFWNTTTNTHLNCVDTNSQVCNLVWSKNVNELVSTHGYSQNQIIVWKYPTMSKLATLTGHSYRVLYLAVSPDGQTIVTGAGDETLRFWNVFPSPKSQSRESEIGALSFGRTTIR
The description is as above.

The target in experiment [5] is T5, CCS52B, TAP-tagged bait (Arabidopsis thaliana) (UniProt Q8LPL5).
T5 sequence: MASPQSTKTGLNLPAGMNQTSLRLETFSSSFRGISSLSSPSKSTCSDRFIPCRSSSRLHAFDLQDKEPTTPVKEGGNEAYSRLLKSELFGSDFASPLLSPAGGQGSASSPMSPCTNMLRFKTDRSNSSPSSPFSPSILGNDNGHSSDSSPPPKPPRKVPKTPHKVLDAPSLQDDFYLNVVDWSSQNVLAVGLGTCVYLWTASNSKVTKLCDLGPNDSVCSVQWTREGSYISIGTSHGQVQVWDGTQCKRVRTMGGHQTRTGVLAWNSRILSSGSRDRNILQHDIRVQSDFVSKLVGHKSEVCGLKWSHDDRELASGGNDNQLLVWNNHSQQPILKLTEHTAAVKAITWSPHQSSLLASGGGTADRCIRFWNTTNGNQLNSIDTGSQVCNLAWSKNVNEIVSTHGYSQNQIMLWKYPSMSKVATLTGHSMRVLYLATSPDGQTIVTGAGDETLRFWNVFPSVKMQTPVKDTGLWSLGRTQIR
The experiment is described as above.

Experiment [6] deals with T6, CDC20.3, TAP-tagged bait (Arabidopsis thaliana) (UniProt Q9S7H3).
T6 sequence: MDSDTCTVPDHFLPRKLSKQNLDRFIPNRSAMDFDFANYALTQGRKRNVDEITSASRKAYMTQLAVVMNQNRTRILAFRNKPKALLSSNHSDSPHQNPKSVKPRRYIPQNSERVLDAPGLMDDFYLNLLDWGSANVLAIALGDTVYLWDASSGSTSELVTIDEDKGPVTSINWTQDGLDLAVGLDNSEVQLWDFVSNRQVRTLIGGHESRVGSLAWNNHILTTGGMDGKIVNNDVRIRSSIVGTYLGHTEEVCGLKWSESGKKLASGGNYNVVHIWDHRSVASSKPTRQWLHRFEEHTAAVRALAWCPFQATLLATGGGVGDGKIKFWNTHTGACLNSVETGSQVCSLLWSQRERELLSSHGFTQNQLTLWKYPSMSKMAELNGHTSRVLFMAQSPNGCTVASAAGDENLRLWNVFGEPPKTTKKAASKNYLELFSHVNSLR
The description is as above.

Experiment [7] concerns the target T2, OSD1 (OMISSION OF SECOND DIVISION), yeast two-hybrid bait (Arabidopsis thaliana). Briefly: two-hybrid; OSD1 mutant alleles as bait (pDEST32) against CCS52A1 as prey (pDEST22), cotransformation into yeast strain PJ69-4a.
In experiment [8] the target is T7, OSD1ΔD, yeast two-hybrid bait (Arabidopsis thaliana) (UniProt Q9M2R1).
T7 sequence: T2 sequence with R104A, L107A
Described as above.

The target in experiment [9] is T8, OSD1ΔGxEN, yeast two-hybrid bait (Arabidopsis thaliana) (UniProt Q9M2R1).
T8 sequence: T2 sequence with G80A, E82A, N83A
The experiment is described as above.

Residue numbers refer to the chain shown, from its start. These are yes or no findings as the source states them, for the method shown. For some of these results: Binding seen in cells or lysates may run through a third protein. Some results given as binding are weak or reduced against the parent protein; the word gives no strength. For some of these results: Tags and fused reporters may be left off the sequences shown.

With “StrepIII-CDKA;1 (from UniProt P24100 1-294) (enzyme)”, in experiment [1], the binding result was “binds”.
On the same count and under the same terms, the entry for “StrepIII-CDKB1;1 (from UniProt P25859 1-309) (enzyme)” is “binds”.

B1: APC8, yeast two-hybrid prey (protein, UniProt Q9STS3 1-579)
chain: MVSKECCRNEIRAAIRQLSDRCLYSAAKWAGEQLVGIEQDPSNFTPANTRFQRGSSSIRRRFSTNESISTPLPSVGFSQAATPLPEEDEAIDGDIYLLAKSYFDCREYRRASHMLRDQVSKKSLFLRYYALYLAGEKRKEEEMIELEGPLGKSDAINRELVSLERDLSALRRTGAIDSFGLYLYGVVLKEKGNESLARASLVESVNSYPWNWSAWSELQSLCTSIEILNSLNLNNHWMKEFFLGNAYQELRMHTESLAKYEYLQGIFSFSNYIQAQTAKAQYSLREFDQVEIMFEELLRNDPYRVEDMDLYSNVLYAKEACAALSYLAHKVFLTDKYRPESCCIIGNYYSLKGQHEKAVMYFRRALKLNKKYLSAWTLMGHEYVEMKNTPAAIDAYRRAVDINPTDYRAWYGLGQAYEMMGMPFYALHYFRKSIFFLPNDSRLWIAMAKCYQTEQLYMLEEAIKCYKRAVNCTDTEGIALNQLAKLHQKLGRNEEAAYYFEKDLERMDAEGLEGPNMFEALVFLATHFKNHKKFEEAEVYCTRLLDYSGPEKEKAKSLLRGIRMAQTGFPSMDLEHFPI
With B1, the binding result in experiment [2] is listed as “no binding”.

B2: APC10, yeast two-hybrid prey (protein, UniProt Q9ZPW2 1-192)
chain: MATESSESEEEGKISGGNYKLIIDDDLREMGKNAAWSVSSCKPGNGVTTLRDDNLETYWQSDGLQPHLINIQFQKKVKLQLVVLYVDFKLDESYTPSKISIRAGDGFHNLKEIKSVELVKPTGWVCLSLSGTDPRETFVNTFMLQIAILSNHLNGRDTHIRQIKVYGPRPNPIPHQPFQFTSMEFLTYSTLR
On to B2, for which, in experiment [2], the binding result is “no binding”.

B3: OSD1 detected in TAP elutions (protein, UniProt Q9M2R1 1-243)
chain: T2 sequence
As to B3, the binding result in [3] was “binds”; in experiment [4], “binds”; in [5], “binds”; in [6], “no binding”.

B4: CCS52A1, yeast two-hybrid prey (protein, UniProt Q8L3Z8 1-483)
chain: T3 sequence
B4: the binding entry in [2] is “binds”; in [7], “binds”; in experiment [8], “no binding”; in experiment [9], “binds”.

B5: StrepIII-CDKB2;2 (enzyme, UniProt Q8LG64 1-315)
chain: MDNNGVKPAVSAMEAFEKLEKVGEGTYGKVYRAREKATGMIVALKKTRLHEDEEGVPPTTLREISILRMLARDPHIVRLMDVKQGINKEGKTVLYLVFEYVDTDLKKFIRSFRQAGQNIPQNTVKCLMYQLCKGMAFCHGHGVLHRDLKPHNLLMDRKTMTLKIADLGLARAFTLPMKKYTHEILTLWYRAPEVLLGATHYSTGVDMWSVGCIFAELVTKQAIFAGDSELQQLLRIFRLLGTPNEEVWPGVSKLKDWHEYPQWKPLSLSTAVPNLDEAGLDLLSKMLEYEPAKRISAKKAMEHPYFDDLPDKSSL
As to B5, the binding entry in experiment [1] was “binds”.
